Laboratory results from PubChem BioAssay AID540267 (National Center for Advancing Translational Sciences (NCATS), 2011).
About 530 (0.16%) of roughly 340,000 compounds were called active. This list was built around the results that the source calls inconclusive (neither active nor inactive); the mix of calls is not that of the screen. No stated cut-off is given here; in the data, active means activity change below about -80%; inconclusive means between about -30% and that limit; inactive means weaker than that.

Assay: Small Molecules that selectively kill Giardia lamblia: qHTS;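 further: parasites exposed to compound for two days anaerobically before the ATP read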
Details: Giardia lamblia trophozoite viability; at 7.66 µM; active compounds read low
How it was run: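 Media and compound were dispensed first, then trophozoites at 100 cells/well; plates sat 48 hrs at 37 deg C without oxygen before ATP luminescence reagent was added and read after 15-30 min at room temperature.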
On the % scale 0 is the no-effect control and ±100 the full control effect.

Row | Structure (SMILES) | activity change
1 | O=C(Cc1c[nH]c2ccccc12)N[C@@H](Cc1c[nH]c2ccccc12)C(=O)O | inconclusive: -34.9% [inhibitor]
2 | COc1ccc(OC)c(/C=C/C(=O)c2ccc3c(c2)OCO3)c1 | inconclusive: -39.3% [inhibitor]
3 | COc1cccc(-c2nn(-c3ccc(C)cc3)cc2C(=O)N2CCN(C3CCS(=O)(=O)C3)CC2)c1 (stereo not drawn) | inconclusive: -30.3% [inhibitor]
4 | Cc1ccc(C2CC2c2n[nH]c(=S)n2-c2cccc(C)c2)cc1 (stereo not drawn) | inactive: -12.4%
5 | CCc1nnc(NC(=O)c2ccc3c(c2)C(=O)N(CC)C3=O)s1 | inconclusive: -36.9% [inhibitor]
6 | Cc1ccc(/C=N/NC(=O)Cc2ccc(Cl)cc2)c(O)c1 | inactive: 6.59%
7 | O=C(O)c1c2c(nc3ccccc13)/C(=C/c1ccc(O)cc1)CC2 | inconclusive: -31.6% [inhibitor]
8 | COc1cccc(C(=O)Nc2ccc(NC(=O)C(C)(C)C)cn2)c1 | inconclusive: -55.2% [inhibitor]
9 | c1cc2c(cc1C1=NNC(=NC3CC3)SC1)OCCO2 | inconclusive: -78.4% [inhibitor]
10 | Cc1cc(OCC(=O)N[C@@H](Cc2c[nH]c3ccccc23)C(=O)O)c2c(C)c(C)c(=O)oc2c1 | inactive: -3.96%
11 | O=c1[nH]cnc2scc(-c3ccc(-c4ccccc4)cc3)c12 | inconclusive: -31% [inhibitor]
12 | C=CCn1c(CNc2ccccc2)nnc1SCC(=O)N/N=C/c1ccccc1O | inconclusive: -30.9% [inhibitor]
13 | CC(C)(C)SCCNC(=O)c1ccc(Cl)c([N+](=O)[O-])c1 | inactive: -11.5%
14 | CCCc1nc2oc3c(Cl)ncnc3c2c2c1CCCC2 | inconclusive: -31.2% [inhibitor]
15 | CN(CCc1ccccc1)C(=O)c1cccc(NC(=O)Cc2cccc(NC(=O)C3CCN(C(=O)C4CCCC4)CC3)c2)c1 | inconclusive: -51.1% [inhibitor]
16 | COC(=O)C1=C(C)N(Cc2ccccc2)C(=O)/C1=C\c1ccco1 | inconclusive: -33.2% [inhibitor]
17 | O=C(CN(c1ccccc1)S(=O)(=O)c1ccc(Cl)cc1)Nc1cccnc1 | inconclusive: -30.1% [inhibitor]
18 | NC(=O)COC(=O)c1ccc(-c2ccc(O)cc2)cc1 | inconclusive: -32.7% [inhibitor]
19 | O=[N+]([O-])c1cccc2c(S(=O)(=O)N3CCOCC3)cccc12 | inconclusive: -38% [inhibitor]
20 | C/C(=N\NC(=O)c1c(C)nc2ccccn12)c1cccc([N+](=O)[O-])c1 | inactive: 8.47%
21 | COc1ccc2nc(C)cc(N/N=C/c3cccc(OC)c3O)c2c1 | active: -83%
22 | CC[C@@H](C)[C@H](C(CC(=O)N1CCCC1[C@@H](OC)[C@H](C)C(=O)N[C@H](Cc1ccccc1)c1nccs1)OC)N(C)C(=O)[C@H](NC(=O)[C@@H](C(C)C)N(C)C)C(C)C (stereo partly drawn) | inconclusive: -44.9% [inhibitor]
23 | C/C(=N\NC(=O)C1CC1)c1ccc(OC(F)F)cc1 | inconclusive: -33.5% [inhibitor]
24 | COc1ccc(/C(N)=N/OC(=O)c2ccc([N+](=O)[O-])c(C)c2)cc1OC | inconclusive: -33.2% [inhibitor]

Row | Structure (SMILES) | activity change
25 | CC1CC(C)CN(C(=O)/C=C/c2ccc([N+](=O)[O-])s2)C1 (stereo not drawn) | inconclusive: -75.2% [inhibitor]
26 | O=C(Nc1ccc(S(=O)(=O)N2CCCC2)cc1)c1ccc([N+](=O)[O-])o1 | active: -81.2%
27 | Cc1c(C2=CCN(S(=O)(=O)c3ccc(Br)cc3)CC2)c2ccccc2n1C | inactive: 16.1%
28 | COc1ccc(CCNC(=O)C23CCC(C)(C(=O)C2=O)C3(C)C)cc1OC (stereo not drawn) | inconclusive: -46.5% [inhibitor]
29 | O=C(NC1CCN(Cc2ccccc2)CC1)c1ccc(Cl)cc1Cl | inactive: 17.6%
30 | Cn1cc([N+](=O)[O-])c(C(=O)Nc2sc3c(c2C#N)CCC3)n1 | inconclusive: -64.8% [inhibitor]
31 | CC(=O)Nc1cccc2ccc(O)cc12 | inconclusive: -35.2% [inhibitor]
32 | COc1cc2c(cc1OC)-c1c(OC)c(OC)cc3ccnc(c13)C2=O | active: -84.3%
33 | CN(C)c1ccc(-c2nc3ccccn3c2/N=C/c2ccc(Br)cc2)cc1 | inconclusive: -67.7% [inhibitor]
34 | COc1cccc(NC(=O)c2cncs2)c1 | inconclusive: -34.4% [inhibitor]
35 | CCOc1ccc(NC(=O)c2ccccc2O)cc1 | inconclusive: -40.3% [inhibitor]
36 | CCOC(=O)CNC(=O)CSc1nnc(NC(=O)c2ccc3c(c2)OCO3)s1 | inconclusive: -58.3% [inhibitor]
37 | COc1ccc(F)c(-c2nc(CN3CCC(c4ccccc4)CC3)c(C)o2)c1 | inconclusive: -30% [inhibitor]
38 | NC(=O)c1ccsc1NC(=O)c1ccc2c(c1)CCCC2 | inconclusive: -52.7% [inhibitor]
39 | CN(/N=C/c1cc(Br)cc(Br)c1O)c1ccccc1 | inactive: 8.07%
40 | O=C(Nc1nc2cc3c(cc2s1)OCCO3)c1ccco1 | inconclusive: -66.6% [inhibitor]
41 | [O-][n+]1c2ccccc2c2n1CCCN=C2c1ccc(Cl)cc1 | active: -84.4%
42 | Cc1ccc(OCC(=O)c2cc(C)n(Cc3ccco3)c2C)c([N+](=O)[O-])n1 | inconclusive: -55.8% [inhibitor]
43 | O=C(CC1CCCCC1)N1CCCC(c2nc(-c3ccc(S(=O)(=O)N4CCCC4)cc3)no2)C1 (stereo not drawn) | inactive: -2.5%
44 | CC(C)(C)C(=O)NC(=S)NNC(=O)c1ccncc1 | inactive: -17.9%
45 | CCCCn1c(N)c(N(Cc2ccccc2OC)C(=O)c2c(CC)noc2C)c(=O)[nH]c1=O | inconclusive: -33.9% [inhibitor]
46 | CCOc1ccc(S(=O)(=O)NCCC(=O)N2CCC(Cc3ccccc3)CC2)cc1 | inconclusive: -31.4% [inhibitor]
47 | COc1cccc(C=NNc2ccc([N+](=O)[O-])cn2)c1OC | inactive: -15.2%
48 | CC(OC(=O)CCN=C1NS(=O)(=O)c2ccccc21)C(=O)NCc1ccccc1 (stereo not drawn) | inactive: -9.88%
